Results on 112 variants are retold here after the RNAGym collection of RNA variant scans (doi:10.7554/elife.90254).

To fix the notation:
B1: LINE1-mini (parent)
chain: GGCAGAGCUCAACACAGCGUGGCAAAGUGGCUGUGGCUAGACUGCC

The source gives no read counts; variants with many changes may rest on few reads.

Variants of B1 are the subject of this data set. Put plainly: self-cleavage, relative activity (ratio to wild type); higher = more cleavage; in vitro, sequencing; the parent is a self-cleaving ribozyme.
With GGCAGAGCUCAACACAGCGUGACAAGGGGGCUGUGACUUGACUGCC, the self-cleavage was 0.27.
GGCAGAGCUCAACACAGCGUGCCGAAGUGGCUGUGGAUAGACUCCC: the self-cleavage was 0.05.
As for GGCAGAGCUCAACACAGCGUGACAAAGUGGCUGUGUCUAGACUGCA, the self-cleavage came to 0.04.
Next, GGCAGAGCUCAACACAGCGUGACAAAGUGGCUGUGGCUAGACUGAU: 0.32; GGCAGAGCUCAACACAGCGUGACAGAGUGGUUGUGGCUAGACUGCC: 0.25; GGCAGAGCUCAACACAGCGUGACAAAGUGGCUGUGGCUCGACUGCU: 0.1.
For GGCAGAGCUCAACACAGCGUGCCACAGGGGCUGUGGAUAGACUGCC, the self-cleavage was determined as 0.01.
As for GGCAGAGCUCAACACAGCGUGACAAAGUGGAUGUGGUUAGACUGCC, the self-cleavage was found to be 0.03.
With GGCAGAGCUCAACACAGCGUGACAAAGUCGCUGUGCCUAGACUGCC the figure was 0.03; with GGCAGAGCUCAACACAGCGUGACAACGUGGCUGUGGCUAGCCUGCC, 0.01.
With GGCAGAGCUCAACACAGCGUGACAAAUUGGCUGUGGCUAGACUACC, the self-cleavage stood at 0.37.
Next, GGCAGAGCUCAACACAGCGUGACAAAGUGGCUAUUGCAAGACUGCC: 0.04; GGCAGAGCUCAACACAGCGUGACAUAGUCGCUGUGGCUAGCCUGCC: 0.04; GGCAGAGCUCAACACAGCGUGACAAAGUGGCUGAUGCUAGAGUGCC: 0.02.
With GGCAGAGCUCAACACAGCGUGCCUAAGUGGCUGUGACUAGACUGCC the figure was 0.13.
For the variant GGCAGAGCUCAACACAGCGUGACAAAGUGUCUGUGGCUAUACUGCA, the self-cleavage was determined as 0.16.
Next, GGCAGAGCUCAACACAGCGUGAUAAAGUGGCUGUGCCUAGACUGCC: 0.03; GGCAGAGCUCAACACAGCGUGACAAAGUACCUGUGGUUAGACUGCC: 0.04; GGCAGAGCUCAACACAGCGUGAAAUAGUGGCUGUGUCUAGACUGCC: 0.04.
Turning to GGCAGAGCUCAACACAGCGUGACAAAGUGGCUCUGGCUACAUAGCC, the self-cleavage came to 0.01.
As for GGCAGAGCUCAACACAGCGUGAAAAAGUGGCUGCGGCUAUACUGCC, the self-cleavage was 0.09.
Next, GGCAGAGCUCAACACAGCGUGACAAAGUGGUUGUGGCUAGACAGCC: 0.02; GGCAGAGCUCAACACAGCGUGACAAAGUCGCUGUGGGUAGACUGCC: 0.
With GGCAGAGCUCAACACAGCGUGACAAAGUGGCUGUUGCAAGACUGCC the figure was 0.09; with GGCAGAGCUCAACACAGCGUGACACAGUGGCUGUGGCUAUAAUGCG, 0.04; with GGCAGAGCUCAACACAGCGUGACAAAGUGGCUGUGGCAAGAUUGUC, 0.09.
On to GGCAGAGCUCAACACAGCGUGACACAGUGGCUGUCGCUAGACUGCC, for which the self-cleavage is 0.03.
With GGCAGAGCUCAACACAGCGUGACAAACCAGCUGAGGCUAGACUGCC the figure was 0.52; with GGCAGAGCUCAACACAGCGUGACAAAGUGGCUUUGGCUAGAAUGCC, 0.08; with GGCAGAGCUCAACACAGCGUGACAAAGUGUCUGUGGCUAAACUGCC, 0.06.
Next, GGCAGAGCUCAACACAGCGUGACAAAGUGGCUGUGCCUAGAGUGCC: 0.35; GGCAGAGCUCAACACAGCGUGCCGAAGUGGCUGUGGCAAGGCUGCC: 0.09.
Next, GGCAGAGCUCAACACAGCGUGAUAAAGAUGCUGUGGCUAGACUGCC: 0.13; GGCAGAGCUCAACACAGCGUGACAACGUGGCUGAGUCUAGACUGCC: 0.04.
On to GGCAGAGCUCAACACAGCGUGACAAAGUUGCUGUGGCUAGACUGCU, for which the self-cleavage was determined as 0.55.
In the case of GGCAGAGCUCAACACAGCGUGACAAAGUGUCUGUGCCUAGACUGCC, the self-cleavage came to 0.03.
Next, GGCAGAGCUCAACACAGCGUGACAAAGUUGCGGUUGCCAGACUGCC: 0.01; GGCAGAGCUCAACACAGCGUGACAAAGUGGCUGUGACUAGACUGAC: 0.07.
Consider GGCAGAGCUCAACACAGCGUGACCAAGUGGCUGUGGCUAGACUGCG, for which the self-cleavage was determined as 0.17.
Turning to GGCAGAGCUCAACACAGCGUGACAAAGUCGCUGUGGCGAGACUGCC, the self-cleavage came to 0.02.
With GGCAGAGCUCAACACAGCGUGACAAAGUAGCUGUGGCUAUACUGCC the figure was 0.12; with GGCAGAGCUCAACACAGCGUGACAAAGUGGUUGUGGCUAGACUCCC, 0.04.
Next, GGCAGAGCUCAACACAGCGUGAUAAAAUGGCUGUGGCUAGACUGCC: 0.26; GGCAGAGCUCAACACAGCGUGACAAAGGGACUGUGGUUAGACUGCC: 0.09.
Take GGCAGAGCUCAACACAGCGUGACAAAUUGGAUGUGGCUAGACUGCC: the self-cleavage was determined as 0.74.
As for GGCAGAGCUCAACACAGCGUGACAAAGUGGCUGUGGGUAGACUGUC, the self-cleavage is 0.04.
Next, GGCAGAGCUCAACACAGCGUGACAAAGCGGCUGUGGAUAGACUGCC: 0.02.
With GGCAGAGCUCAACACAGCGUGACAAUGUGGGUGUGGCUAGUCUGCC the figure was 0.07; with GGCAGAGCUCAACACAGCGUGAAAAAGUGGCUGUGGCUAGACAGCC, 0.05; with GGCAGAGCUCAACACAGCGUGACAAAGUGCCUGUGUCUAGACUGCC, 0.05.
For GGCAGAGCUCAACACAGCGUGACAUAGUGGCUGUGGCUAGACUACC, the self-cleavage was determined as 0.4.
On to GGCAGAGCUCAACACAGCGUGACAAAGUGGAUGUGGCUGGACUGCC, for which the self-cleavage came to 0.04.
Next, GGCAGAGCUCAACACAGCGUGACAAAGUGGCUGUGCCUAGUCUGCC: 0.21.
With GGCAGAGCUCAACACAGCGUGACAAAGUGGCUGUGGCUAGACUUGC the figure was 0.08; with GGCAGAGCUCAACACAGCGUGACAAAGUGGGUGUGGCUAGAUUGCC, 0.03.
Take GGCAGAGCUCAACACAGCGUGACAAAGUGGUUGUGGCUAGAAUGCU: the self-cleavage stood at 0.04.
With GGCAGAGCUCAACACAGCGUGAGAAAGUGGCUGUGUCUAGACAGCC the figure was 0.18.
For the variant GGCAGAGCUCAACACAGCGUGACCAAGUGGCUGAGGCUAGACUGCC, the self-cleavage is 0.43.
Next, GGCAGAGCUCAACACAGCGUGACAAUGUGGCUGUGGCUAGACAACC: 0.12.
With GGCAGAGCUCAACACAGCGUGAGAAAGGAGCUGUGGAUAGACUGCC the figure was 0.03; with GGCAGAGCUCAACACAGCGUGACAAAGUGGCUUUGGGUAGACUGCC, 0.02; with GGCAGAGCUCAACACAGCGUGACGAAGUGGCUGGGGCUAGACUGCC, 0.41.
GGCAGAGCUCAACACAGCGUGACAAAGUGGCUCCUGCUAGAAUGCC: the self-cleavage worked out at 0.06.
With GGCAGAGCUCAACACAGCGUGACAAUGUUGCUGUGGCUACACUGCC, the self-cleavage is 0.16.
In the case of GGCAGAGCUCAACACAGCGUGACAAAAUGGCUGUGGCUAAACUGCC, the self-cleavage is 0.08.
Next, GGCAGAGCUCAACACAGCGUGACAUAGUUGCUGUGGCUAGACUGCC: 1.87; GGCAGAGCUCAACACAGCGUGAUAAAGUGGGUGUGGCUAGACUGCC: 0.04; GGCAGAGCUCAACACAGCGUGACAAAUUUGUUGUGGCUAGACUGGC: 0.76.
For GGCAGAGCUCAACACAGCGUGACAAAGUGGGUGUGGCUAGACUACC, the self-cleavage stood at 0.04.
Next, GGCAGAGCUCAACACAGCGUGACAAAUUGGCUUUCGCUAGACUGCC: 0.05; GGCAGAGCUCAACACAGCGUGACAUAGUGGUGGUGGCUAGACUGCC: 0.07; GGCAGAGCUCAACACAGCGUGACAAAGAGGCUUUGGCUAGAAUGCC: 0.23.
As for GGCAGAGCUCAACACAGCGUGCCCAAGUGGCUGUUGCUAGAUUGCC, the self-cleavage came out at 0.02.
Regarding GGCAGAGCUCAACACAGCGUGACAAAGUAGUUGUUGCUAGACUGCC, the self-cleavage turned out to be 0.03.
As for GGCAGAGCUCAACACAGCGUGACAAAUUGGCUGUGGCUAGACUGAC, the self-cleavage is 0.36.
On to GGCAGAGCUCAACACAGCGUGACAAAGUGGUUGUGGCAAGGCUGCC, for which the self-cleavage is 0.12.
With GGCAGAGCUCAACACAGCGUGACAAAGUGGCUGUGGGUAAACUGCC the figure was 0.04; with GGCAGAGCUCAACACAGCGUGAAAAAGUGGCUGUAGCUAGACUGCC, 0.15.
Next, GGCAGAGCUCAACACAGCGUGAGAAAGUGGUUGUGGCUAGACUGCC: 0.24.
Next, GGCAGAGCUCAACACAGCGUGAUAAAGUGGCUGUUGCUAGACUGCC: 1.91; GGCAGAGCUCAACACAGCGUGACACAGUGGCUGUGCCUAGACUGCC: 0.14; GGCAGAGCUCAACACAGCGUGACAAAGUGGCUGUGGUUCGACUGCC: 0.07.
For the variant GGCAGAGCUCAACACAGCGUGACAAAGAGGCUGUGGCUCGACUGCC, the self-cleavage stood at 0.02.
As for GGCAGAGCUCAACACAGCGUGACAAAGUGGCUGUGACUAGACAGCC, the self-cleavage is 0.16.
As for GGCAGAGCUCAACACAGCGUGACAAAGUGGCUGUGGCUAUAAUGCC, the self-cleavage was 0.17.
With GGCAGAGCUCAACACAGCGUGACAAAGUGGAUGUGGAUAGUCUGCC the figure was 0.08; with GGCAGAGCUCAACACAGCGUGACAAAAUGGCUGUGGCGAGACUGCC, 0.02; with GGCAGAGCUCAACACAGCGUGAAAAAGUGGCUAUGGCUAGACUGCC, 0.48.
Next, GGCAGAGCUCAACACAGCGUGACAAAAUGGCUUUGGCUAGCCUGCC: 0.09; GGCAGAGCUCAACACAGCGUGACAAAGUGUCUGUGGCGAGACUGCA: 0.
With GGCAGAGCUCAACACAGCGUGACAACGUUGCUGUGGCUAGACUGCG the figure was 0.31.
As for GGCAGAGCUCAACACAGCGUGACAAAGUGGCUGUGCCUAGACUUCC, the self-cleavage turned out to be 0.06.
With GGCAGAGCUCAACACAGCGUGACAAAGUGGCUAAGGCUAGCUUGCC the figure was 0.03; with GGCAGAGCUCAACACAGCGUGACAAAGUGGCUGAGGCUAGAUUGCC, 0.06; with GGCAGAGCUCAACACAGCGUGACAAAAUGGCUGUGGCUAGGCUGCC, 0.74.
In the case of GGCAGAGCUCAACACAGCGUGCCUAAUUGGCUGUUGCUAUACUGCC, the self-cleavage came out at 0.12.
With GGCAGAGCUCAACACAGCGUGACAAAGUGGCUAUGUCUAUACUGCC the figure was 0.01.
With GGCAGAGCUCAACACAGCGUGACAAAGUGGAUGUGGCUAGACUUUC the figure was 0.03.
GGCAGAGCUCAACACAGCGUGACAAAGUUGCUGUGGAUAGACUGCC: the self-cleavage was 0.06.
Next, GGCAGAGCUCAACACAGCGUGACAAAGUCGCUGUGGCUAGACAGCC: 0.01.
Turning to GGCAGAGCUCAACACAGCGUGACACAUUGGCUGUGGCUAUACUGCC, the self-cleavage worked out at 0.08.
GGCAGAGCUCAACACAGCGUGAUAAAGUGGCUUUGGCUAGACUGCC: the self-cleavage was 1.16.
Consider GGCAGAGCUCAACACAGCGUGAGAAAGUCGCUGUGGCUACACUGCC, for which the self-cleavage was 0.06.
With GGCAGAGCUCAACACAGCGUGACUAAGUGGCUGUGGUUAGAGUGCC the figure was 0.02; with GGCAGAGCUCAACACAGCGUGACUAAGUGGGUGUGGCUAGACUGCC, 0.08; with GGCAGAGCUCAACACAGCGUGACAAAGUAGCUGUGGCUAGACUGCU, 2.15.
Turning to GGCAGAGCUCAACACAGCGUGACAAAGUGGCUAUGGCUAGACUUCC, the self-cleavage was determined as 0.04.
With GGCAGAGCUCAACACAGCGUGACAAAGUGGCUGUGGCUGGACUGUC the figure was 0.08; with GGCAGAGCUCAACACAGCGUGACACAUUGGCUGUGGCUAGACUGCC, 0.12.
Next, GGCAGAGCUCAACACAGCGUGACAAAGUGGCUGUUGCUAGGCUACC: 0.02.
Next, GGCAGAGCUCAACACAGCGUGACAAACUGGCUGUGGCUAGACUGCA: 0.48; GGCAGAGCUCAACACAGCGUGACAAAGUGGCUUUGGCUAGACAGCC: 0.12.
